Test results taken from article PMC9911399, “Two distinct binding modes provide the RNA-binding protein RbFox with extraordinary sequence specificity”.
Residue numbers refer to the chain shown, from its start. Some of the results follow.

T1: RBFOX1 RRM (Homo sapiens, UniProt Q9NWB1 109-208)
T1 sequence: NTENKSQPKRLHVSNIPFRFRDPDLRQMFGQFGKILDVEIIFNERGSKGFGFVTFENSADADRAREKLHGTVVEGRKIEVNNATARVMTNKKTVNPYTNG

B1: ACCUUGC (DNA:RNA)
RNA: GGGAGACCGGAAUUCAGAUUGUCCACCUUGCUUAAAUCCCGUCGUAGCCACCA
DNA 1: CAATCTGAATTCCGGTCTCCC
DNA 2: TGGTGGCTACGACGGGATT
B2: CUUGAGA (DNA:RNA)
RNA: B1 RNA with A25C, C26U, C27U, U28G, U29A, C31A
DNA 1: CAATCTGAATTCCGGTCTCCC
DNA 2: TGGTGGCTACGACGGGATT
B3: ACGCUCC (DNA:RNA)
RNA: B1 RNA with C27G, U28C, G30C
DNA 1: CAATCTGAATTCCGGTCTCCC
DNA 2: TGGTGGCTACGACGGGATT
B4: AUCUUUA (DNA:RNA)
RNA: B1 RNA with C26U, G30U, C31A
DNA 1: CAATCTGAATTCCGGTCTCCC
DNA 2: TGGTGGCTACGACGGGATT
B5: CAAUGCC (DNA:RNA)
RNA: B1 RNA with A25C, C26A, C27A, U29G, G30C
DNA 1: CAATCTGAATTCCGGTCTCCC
DNA 2: TGGTGGCTACGACGGGATT
B6: AAAAGGU (DNA:RNA)
RNA: B1 RNA with C26A, C27A, U28A, U29G, C31U
DNA 1: CAATCTGAATTCCGGTCTCCC
DNA 2: TGGTGGCTACGACGGGATT
B7: CAAUAAA (DNA:RNA)
RNA: B1 RNA with A25C, C26A, C27A, U29A, G30A, C31A
DNA 1: CAATCTGAATTCCGGTCTCCC
DNA 2: TGGTGGCTACGACGGGATT
B8: GUUGCUU (DNA:RNA)
RNA: GGGAGACCGGAAUUCAGAUUGUCCGUUGCUUUUAAAUCCCGUCGUAGCCACCA
DNA 1: CAATCTGAATTCCGGTCTCCC
DNA 2: TGGTGGCTACGACGGGATT
B9: CACCCAC (DNA:RNA)
RNA: B1 RNA with A25C, C26A, U28C, U29C, G30A
DNA 1: CAATCTGAATTCCGGTCTCCC
DNA 2: TGGTGGCTACGACGGGATT
B10: GUGCCUA (DNA:RNA)
RNA: B8 RNA with U27G, G28C, U31A
DNA 1: CAATCTGAATTCCGGTCTCCC
DNA 2: TGGTGGCTACGACGGGATT
B11: UCUACAC (DNA:RNA)
RNA: B1 RNA with A25U, C27U, U28A, U29C, G30A
DNA 1: CAATCTGAATTCCGGTCTCCC
DNA 2: TGGTGGCTACGACGGGATT
B12: CCAGCUC (DNA:RNA)
RNA: B8 RNA with G25C, U26C, U27A, U31C
DNA 1: CAATCTGAATTCCGGTCTCCC
DNA 2: TGGTGGCTACGACGGGATT
B13: AGACUAA (DNA:RNA)
RNA: B1 RNA with C26G, C27A, U28C, G30A, C31A
DNA 1: CAATCTGAATTCCGGTCTCCC
DNA 2: TGGTGGCTACGACGGGATT
B14: CUGAUUA (DNA:RNA)
RNA: B8 RNA with G25C, U27G, G28A, C29U, U31A
DNA 1: CAATCTGAATTCCGGTCTCCC
DNA 2: TGGTGGCTACGACGGGATT
B15: UGGACUC (DNA:RNA)
RNA: B8 RNA with G25U, U26G, U27G, G28A, U31C
DNA 1: CAATCTGAATTCCGGTCTCCC
DNA 2: TGGTGGCTACGACGGGATT
B16: AUCGUGA (DNA:RNA)
RNA: B1 RNA with C26U, U28G, C31A
DNA 1: CAATCTGAATTCCGGTCTCCC
DNA 2: TGGTGGCTACGACGGGATT
B17: CAAGGCC (DNA:RNA)
RNA: B1 RNA with A25C, C26A, C27A, U28G, U29G, G30C
DNA 1: CAATCTGAATTCCGGTCTCCC
DNA 2: TGGTGGCTACGACGGGATT
B18: GGUGGAA (DNA:RNA)
RNA: B8 RNA with U26G, C29G, U30A, U31A
DNA 1: CAATCTGAATTCCGGTCTCCC
DNA 2: TGGTGGCTACGACGGGATT
B19: CGACCGU (DNA:RNA)
RNA: B8 RNA with G25C, U26G, U27A, G28C, U30G
DNA 1: CAATCTGAATTCCGGTCTCCC
DNA 2: TGGTGGCTACGACGGGATT
B20: ACGCGGU (DNA:RNA)
RNA: B1 RNA with C27G, U28C, U29G, C31U
DNA 1: CAATCTGAATTCCGGTCTCCC
DNA 2: TGGTGGCTACGACGGGATT
B21: GGAGGUC (DNA:RNA)
RNA: B8 RNA with U26G, U27A, C29G, U31C
DNA 1: CAATCTGAATTCCGGTCTCCC
DNA 2: TGGTGGCTACGACGGGATT
B22: AAAAGUU (DNA:RNA)
RNA: B8 RNA with G25A, U26A, U27A, G28A, C29G
DNA 1: CAATCTGAATTCCGGTCTCCC
DNA 2: TGGTGGCTACGACGGGATT
B23: GAAAACU (DNA:RNA)
RNA: B8 RNA with U26A, U27A, G28A, C29A, U30C
DNA 1: CAATCTGAATTCCGGTCTCCC
DNA 2: TGGTGGCTACGACGGGATT
B24: AAGUGGC (DNA:RNA)
RNA: B1 RNA with C26A, C27G, U29G
DNA 1: CAATCTGAATTCCGGTCTCCC
DNA 2: TGGTGGCTACGACGGGATT
B25: UCGUACG (DNA:RNA)
RNA: B1 RNA with A25U, C27G, U29A, G30C, C31G
DNA 1: CAATCTGAATTCCGGTCTCCC
DNA 2: TGGTGGCTACGACGGGATT
B26: CCACAAU (DNA:RNA)
RNA: B1 RNA with A25C, C27A, U28C, U29A, G30A, C31U
DNA 1: CAATCTGAATTCCGGTCTCCC
DNA 2: TGGTGGCTACGACGGGATT
B27: UGACCAU (DNA:RNA)
RNA: B8 RNA with G25U, U26G, U27A, G28C, U30A
DNA 1: CAATCTGAATTCCGGTCTCCC
DNA 2: TGGTGGCTACGACGGGATT
B28: CGAUGCA (DNA:RNA)
RNA: B1 RNA with A25C, C26G, C27A, U29G, G30C, C31A
DNA 1: CAATCTGAATTCCGGTCTCCC
DNA 2: TGGTGGCTACGACGGGATT
B29: UUUCAAA (DNA:RNA)
RNA: B8 RNA with G25U, G28C, C29A, U30A, U31A
DNA 1: CAATCTGAATTCCGGTCTCCC
DNA 2: TGGTGGCTACGACGGGATT
B30: GACAUUG (DNA:RNA)
RNA: B1 RNA with A25G, C26A, U28A, G30U, C31G
DNA 1: CAATCTGAATTCCGGTCTCCC
DNA 2: TGGTGGCTACGACGGGATT
B31: CCAUUCC (DNA:RNA)
RNA: B1 RNA with A25C, C27A, G30C
DNA 1: CAATCTGAATTCCGGTCTCCC
DNA 2: TGGTGGCTACGACGGGATT

The binders below were run against T1, RBFOX1 RRM (assay: EMSA; HiTS-Eq, 1 nM pool, 10 min; buffer printed only for the single-RNA assays: 10 mM Tris pH 7.5, 150 mM NaCl, 3.4 mM EDTA, 0.001% NP-40, 30 C). Conditions: tags: His6 N-terminal (pET28a); label: 5' 32P.
Procedure, shortened: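 Purified wild-type or mutant RbFox RRM at increasing concentrations was equilibrated with 1 nM of 5′-radiolabelled RNA carrying 7 randomized nucleotides for 10 min in 50 µL. Unbound RNA was separated by 8% native PAGE and sequenced. Relative association constants came from read-count changes of each RNA species compared with the control reaction, normalised to the cognate motif.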

Binder	binding signal
B1	0.0134 KA relative to UGCAUGU
B2	0.0141 KA relative to UGCAUGU
B3	0.0063 KA relative to UGCAUGU
B4	0.0011 KA relative to UGCAUGU
B5	0.00351 KA relative to UGCAUGU
B6	0.00523 KA relative to UGCAUGU
B7	0.00103 KA relative to UGCAUGU
B8	0.0233 KA relative to UGCAUGU
B9	0.00185 KA relative to UGCAUGU
B10	0.0106 KA relative to UGCAUGU
B11	0.00441 KA relative to UGCAUGU
B12	0.00875 KA relative to UGCAUGU
B13	0.00288 KA relative to UGCAUGU
B14	0.011 KA relative to UGCAUGU
B15	0.0247 KA relative to UGCAUGU
B16	0.00772 KA relative to UGCAUGU

Binder	binding signal
B17	0.00854 KA relative to UGCAUGU
B18	0.00994 KA relative to UGCAUGU
B19	0.0105 KA relative to UGCAUGU
B20	0.0119 KA relative to UGCAUGU
B21	0.00757 KA relative to UGCAUGU
B22	0.00166 KA relative to UGCAUGU
B23	0.00592 KA relative to UGCAUGU
B24	0.00766 KA relative to UGCAUGU
B25	0.0163 KA relative to UGCAUGU
B26	0.00191 KA relative to UGCAUGU
B27	0.00768 KA relative to UGCAUGU
B28	0.0226 KA relative to UGCAUGU
B29	0.00521 KA relative to UGCAUGU
B30	0.0146 KA relative to UGCAUGU
B31	0.00241 KA relative to UGCAUGU
